# In the RNAGym collection of RNA variant scans (doi:10.7554/elife.90254):
# The source gives no read counts; variants with many changes may rest on few reads.
# B1: LINE1-full (parent)
# chain: UACGUAGGUGGUUUUCCCCUGAUAGUGCUAAGGGGGCCUGGAAGUUUGGACUGGGCAGAGCUCAACACAGCGUGGCAAAGUGGCUGUGGCUAGACUGCCUCUCUGGAUUCCUCGUCACUCAGCAGGGCAUCUCUGAGAGAAAUGCC
# Variants of: B1
# Assay: self-cleavage, relative activity (ratio to wild type); higher = more cleavage; in vitro, sequencing; the parent is a self-cleaving ribozyme
row,Variant,self-cleavage
1,U13C A50U U62C U130G U132C,0.35
2,U13C A57G A65U,0.24
3,U13C A57G A78U U81A U119A,0.63
4,U13C A57G A107G,0.71
5,U13C A57G A138U,0.67
6,U13C A57G U119C A140U,2.12
7,U13C A57G U132C,0.72
8,U13C A57U C61A A65G,0.13
9,U13C A59G A92G A129G,0
10,U13C A59G G83C U96C,0.11
11,U13C A59G U62C C120U,0
12,U13C A59G U96C,0
13,U13C A59U A107G A142G,1.31
14,U13C A59U U104C,1.65
15,U13C A64C A79U U85C U87A G125A G127U U134A,0.04
16,U13C A64C U143C,0.56
17,U13C A64G A65G U112A A141G,0
18,U13C A64G A124G,0
19,U13C A64G A141G,0.25
20,U13C A64G U73A,0.37
21,U13C A64G U81A U115A A140G,0.44
22,U13C A64G U119C,0.36
23,U13C A64U A65G,0.16
24,U13C A64U A92U,0.26

row,Variant,self-cleavage
1,U13C A65C A69G C98A A136G,0.05
2,U13C A65G A69U U81C G97A,0.09
3,U13C A65G G72A,0.05
4,U13C A65G U73A,0.05
5,U13C A65G U96A,0
6,U13C A65G U96A U104A,0.12
7,U13C A65G U104C,0
8,U13C A65G U130C,0.18
9,U13C A65U C84U U87C,0.1
10,U13C A65U U130A,0.16
11,U13C A67G G89A,0.07
12,U13C A67G U85C,0.14
13,U13C A67U A77U,0.09
14,U13C A69G A92U U134C,0.26
15,U13C A69G C95A,0.06
16,U13C A69G U87C,0.21
17,U13C A69G U108C U132C U134C,0
18,U13C A69U A117U,0.06
19,U13C A69U A141G C145U,0.13
20,U13C A69U G74A U100A A107U U119C,0
21,U13C A77G A92U A121U,0.74
22,U13C A77G U85C U134C,0
23,U13C A77G U109A C133A,1.31
24,U13C A77G U112G C113U,0.94

row,Variant,self-cleavage
1,U13C A78C U81C,1.02
2,U13C A78G C90A U91C A142G,0.12
3,U13C A78G U96C G125U,0.1
4,U13C A78U U112A C120U,2.42
5,U13C A79G A138G,1.9
6,U13C A79G U102C,0.38
7,U13C A79G U108C U109C,1.53
8,U13C A79U A94G,0.25
9,U13C A79U A142G,2.39
10,U13C A79U U115C U132C,1.53
11,U13C A92G U119C,0.19
12,U13C A92G U132A,0.05
13,U13C A94G G97A,0.13
14,U13C A94G U102C,0.31
15,U13C A94G U108C,2.16
16,U13C A94U U102C A140G,0.89
17,U13C A107G A117U,1.46
18,U13C A107G A121G,0.84
19,U13C A107G G126A,1.16
20,U13C A107G U112C,1.44
21,U13C A107U G144A,1.43
22,U13C A117G G126A,1.23
23,U13C A117U A129U,1.53
24,U13C A117U A138U,1.02

row,Variant,self-cleavage
1,U13C A117U U132C,1.37
2,U13C A124U A140G,0.89
3,U13C A138U A140G,1
4,U13C A141G U143A,0.93
5,U13C C16A A24G U39A U73C A117U U143C,1.47
6,U13C C18U U73C U96C U134G,0
7,U13C C19A U39A A140G C146U,1.31
8,U13C C19U A142G,1.12
9,U13C C19U U62A A77G U100C A142G,0
10,U13C C28A U81C U85C,0.85
11,U13C C28G G32A A42G,0.92
12,U13C C28U C37U A59G U134C,0.05
13,U13C C37G A141G C146U,1.05
14,U13C C37G U62C A136G,0.11
15,U13C C37U A43G G55A,0.16
16,U13C C37U A64C A67G U87C C103U,0.57
17,U13C C51A A124G,0.75
18,U13C C61U A107G G137A,0.04
19,U13C C63A A79U U109C,0.11
20,U13C C63U A69G,0.2
21,U13C C68U A78G,0.03
22,U13C C68U U81A U134C A141G,0.18
23,U13C C71A A117G U134C A140G,0.29
24,U13C C71U A92U U134C,0.43

row,Variant,self-cleavage
1,U13C C76A G83A U109C,0.5
2,U13C C84U A117U U130C,0.06
3,U13C G21A A79G A107G A138G,0
4,U13C G21U U108C A129G,2.16
5,U13C G25U C51U C68U,0.44
6,U13C G27A U115C,2.02
7,U13C G27C A78U U100A A142G,1.55
8,U13C G27U G54A A129G,0.55
9,U13C G32A C99U,0.62
10,U13C G32U U39C A43G A92G U108C,0
11,U13C G33A U109C,0.33
12,U13C G36C G48A G125A,0.23
13,U13C G40C A136G,1.24
14,U13C G41A U62C,0.06
15,U13C G41U U132A,1.33
16,U13C G44A A67G A77G U81A,0.97
17,U13C G48U A57G A121G,1.05
18,U13C G49A A69U U85A,0.17
19,U13C G55A A57G A67G A77U,0
20,U13C G74A U109C U119C A129U,0.81
21,U13C G80A U96C U104C,0.22
22,U13C G88U A124C,0.2
23,U13C G93U A117C,0.08
24,U13C G97U G114A A136G A142G,0.05

row,Variant,self-cleavage
1,U13C U14A A24G U73A U115C A117U U132C,1.05
2,U13C U14A U62C A117G,0
3,U13C U14A U100C G139A,1.26
4,U13C U14C A59G A107G,0.21
5,U13C U14C U15C,0.78
6,U13C U14C U26A A78G U102A A138U A141G,1.25
7,U13C U14C U52A A59G,0.14
8,U13C U14C U109C,0.61
9,U13C U14C U115G,0.9
10,U13C U15A A77G A79G U109C,0.77
11,U13C U15A U29C A57G,0.17
12,U13C U15C A42U U87C U100C,0.52
13,U13C U15C A43G,1.84
14,U13C U15C A59U U85A U119C,0.25
15,U13C U15C G88A,0
16,U13C U15C U26A,1.5
17,U13C U15C U45C A67G G88U,0.37
18,U13C U15C U73C A121U U143C,0.96
19,U13C U20A A64G G75A G114A,0.18
20,U13C U20A U108C,1.56
21,U13C U20C A24G,0.92
22,U13C U20C A30G G127A A129U A136G,0.57
23,U13C U20C A42G G55U U62C A67U U132C,0.23
24,U13C U20C A42G G114A U119C U132A,2.38

row,Variant,self-cleavage
1,U13C U20C A138G,0.53
2,U13C U20C A141G C146U,1.29
3,U13C U20C G21U G58A U73C,0.1
4,U13C U20C G27A,0.49
5,U13C U20C U45C C71A A117G,0.19
6,U13C U20C U52A G60A U102C U115C,0
7,U13C U20C U73C U81A,1.5
8,U13C U20C U132A A138U A140U,1.79
9,U13C U20C U132C,0.79
10,U13C U20G A31U,0.33
11,U13C U20G A78G,1.23
12,U13C U20G U47A A50G A67U U85C,0.28
13,U13C U23C A50U C113U C131U,1.33
14,U13C U23C C111A,1.57
15,U13C U23C U45G U130C,1.02
16,U13C U23C U100C A136U,1.31
17,U13C U23G A24G A107G,0
18,U13C U26A A107U U132C,0.81
19,U13C U26A C76U,1.92
20,U13C U26A U52C,1.17
21,U13C U26C A121U,1.12
22,U13C U26C U81C C84U U85C,0.13
23,U13C U26C U112C,1.46
